Legend:
kinases in HCT116 cells = assay: KiNativ live cell kinome profiling; format: cell-based, human; settings: 1 μM, 4 h
[1] = system: phosphorylated RB S807/811; assay: Immunoblot of phosphorylated RB S807/811 in HCT116 cells; format: cell-based, human; settings: 1 μM
CDK14 [2] = target: T1, CDK14 (Homo sapiens, UniProt O94921); assay: NanoBRET live cell target engagement CDK14; format: cell-based; settings: for IC50: IC50 CDK14 NanoBRET, HCT116 cells, without compound washout, ± SEM
CDK14 [3] = target: T1, CDK14; assay: Cellular target engagement of CDK14 by pulldown assay; format: cell-based
CDK14 [4] = target: T1, CDK14; assay: CDK14 33P kinase assay; format: biochemical
HCT116 cells = assay: HCT116 antiproliferation assay; format: cell-based, human; settings: for IC50: Homo sapiens, HCT-116, 72 h, read-out: IC50 HCT116 Proliferation
CDK14 [5] = target: T1, CDK14; assay: Competition pull-down with biotin-FMF-03-198-2 in HCT116 cells, CDK14; format: cell-based; settings: 4 h treatment
CDK10 = CDK10 (Homo sapiens, UniProt Q15131); assay: Competition pull-down with biotin-FMF-03-198-2 in HCT116 cells, CDK10; format: cell-based; settings: 4 h treatment; for concentration at which engagement of CDK10 was observed (pull-down): HCT116 cells
CDK16 = CDK16 (Homo sapiens, UniProt Q00536); assay: Competition pull-down with biotin-FMF-03-198-2 in HCT116 cells, CDK16; format: cell-based; settings: 4 h treatment
CDK17 = CDK17 (Homo sapiens, UniProt Q00537); assay: Competition pull-down with biotin-FMF-03-198-2 in HCT116 cells, CDK17; format: cell-based; settings: 4 h treatment
CDK2 [6] = target: T2, CDK2 (Homo sapiens, UniProt P24941); assay: Competition pull-down with biotin-FMF-03-198-2 in HCT116 cells, CDK2; format: cell-based; settings: 4 h treatment; for concentration at which only slight inhibition of CDK2 was observed (pull-down): HCT116 cells
[7] = system: Nucleophosmin (NPM) T199 phosphorylation; assay: Immunoblot of Nucleophosmin; format: cell-based, human; settings: HCT116 cells, 1 μM
pLRP6 S1490 = assay: LRP6 S1490 phosphorylation in double thymidine-synchronized cells; format: cell-based, human; settings: 1 μM, 4 h windows, 8 to 10 h after release
[8] = system: HCT116 CDK14 knockout cells expressing WT or C218S CDK14; assay: FACS PI cell cycle analysis; format: cell-based, human; settings: 24 h treatment
CDK2/CycA = CDK2/CycA (Homo sapiens, UniProt P24941); assay: Z'LYTE kinase assay CDK2/CycA; format: biochemical
CDK2 [9] = target: T2, CDK2; assay: NanoBRET live cell target engagement CDK2; format: cell-based
CDK14/CycY = CDK14/CycY (Homo sapiens, UniProt O94921); assay: LanthaScreen Eu kinase binding assay CDK14/CycY
CDK16/CycY = CDK16/CycY (Homo sapiens, UniProt Q00536); assay: LanthaScreen Eu kinase binding assay CDK16/CycY

Chain of UniProt Q15131 (Q15131 whole entry): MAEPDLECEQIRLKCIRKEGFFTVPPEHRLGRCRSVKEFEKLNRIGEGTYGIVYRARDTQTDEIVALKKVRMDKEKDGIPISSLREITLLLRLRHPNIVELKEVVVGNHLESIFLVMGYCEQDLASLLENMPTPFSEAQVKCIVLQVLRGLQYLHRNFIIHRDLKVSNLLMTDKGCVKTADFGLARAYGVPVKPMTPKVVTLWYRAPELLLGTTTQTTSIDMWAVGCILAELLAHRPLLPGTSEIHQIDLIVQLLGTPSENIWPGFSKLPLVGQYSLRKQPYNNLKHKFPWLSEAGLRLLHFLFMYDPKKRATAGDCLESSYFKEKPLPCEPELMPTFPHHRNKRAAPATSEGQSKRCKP
Chain of UniProt Q00537 (Q00537 whole entry): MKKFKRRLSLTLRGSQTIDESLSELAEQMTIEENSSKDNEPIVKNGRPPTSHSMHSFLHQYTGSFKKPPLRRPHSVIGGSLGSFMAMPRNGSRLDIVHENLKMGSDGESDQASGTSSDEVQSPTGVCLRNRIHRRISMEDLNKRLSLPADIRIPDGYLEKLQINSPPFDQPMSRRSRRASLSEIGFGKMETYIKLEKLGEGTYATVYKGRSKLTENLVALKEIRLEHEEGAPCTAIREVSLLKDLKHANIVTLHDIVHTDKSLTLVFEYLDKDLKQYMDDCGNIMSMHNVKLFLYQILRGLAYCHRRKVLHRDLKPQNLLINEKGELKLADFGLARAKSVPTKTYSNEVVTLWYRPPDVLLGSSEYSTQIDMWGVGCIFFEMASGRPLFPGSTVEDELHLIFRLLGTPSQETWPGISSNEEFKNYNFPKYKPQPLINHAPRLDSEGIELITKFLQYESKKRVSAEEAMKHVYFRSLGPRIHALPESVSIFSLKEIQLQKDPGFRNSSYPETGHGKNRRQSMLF

IC50 (CDK2/CycA) [µM]	IC50 (CDK2 [9]) [µM]	Structure (SMILES)	kinases inhibited in KiNativ profiling (kinases in HCT116 cells)	levels of phosphorylated RB S807/811 [1]	IC50 (CDK14 [2]) [µM]	IC50 (CDK14 [3]) [µM]	IC50 (CDK14 [4]) [µM]	IC50 (HCT116 cells) [µM]	concentration at which engagement of CDK10 was observed (pull-down) (CDK10)	concentration at which only slight inhibition of CDK2 was observed (pull-down) (CDK2 [6])	Inhibition of NPM T199 phosphorylation [7]	effect on cell cycle phase distribution [8]	further results
–	–	O=C(NC1CCNCC1)c1n[nH]cc1NC(=O)c1c(Cl)cccc1Cl [AT7519, N-(4-piperidinyl)-4-(2,6-dichlorobenzoylamino)-1 H-pyrazole-3-carboxamide, reference compound]	potently inhibited CDK14	partial reduction	–	–	–	–	–	–	–	–	–
–	–	CN(C)C/C=C/C(=O)Nc1cccc(S(=O)(=O)N2CCC(NC(=O)c3n[nH]cc3NC(=O)c3c(Cl)cc(Cl)cc3Cl)CC2)c1 [FMF-04-159-2, (E)-N-(1-((3-(4-(dimethylamino)but-2-enamido)phenyl)sulfonyl)piperidin-4-yl)-4-(2,4,6-trichlorobenzamido)-1H-pyrazole-3-carboxamide]	potently inhibited the TAIRE kinases CDK14, CDK16, CDK17 and CDK18	did not observe major reductions	0.0396 ± 0.0028	0.5	0.352 ± 0.04	1.14 ± 0.19	above 750 nM	above 500 nM	comparable to AT7519	increased numbers of cells in G2/M	fold weaker potency for CDK14 at 2 h than at 6 h (NanoBRET) (CDK14 [2]; 2 h timepoint vs 6 h): ~20 fold; fold less potent than FMF-03-198-2 in HCT116 cell proliferation assays (HCT116 cells): more than 200 fold; fold difference in HCT116 cell IC50 between the reversible and covalent inhibitor pair (HCT116 cells; FMF-04-159-R vs FMF-04-159-2): 5 fold; CDK14 engagement after washout (pull-down) (CDK14 [5]; 1 μM, then washout): sustained for up to 2 h after washout; concentration of complete engagement of CDK14 (pull-down) (CDK14 [5]; HCT116 cells): ≥ 500 nM; CDK10 engagement after washout (pull-down) (CDK10; 1 μM, 2 h after washout): no longer inhibited; CDK16 engagement after washout (pull-down) (CDK16; 1 μM, 2 h after washout): almost fully removed; concentration at which CDK16 was inhibited (pull-down) (CDK16; HCT116 cells): above 750 nM; CDK17 engagement after washout (pull-down) (CDK17; 1 μM, 2 h after washout): no longer inhibited; concentration at which CDK17 was inhibited (pull-down) (CDK17; HCT116 cells): above 750 nM; CDK2 engagement after washout (pull-down) (CDK2 [6]; 1 μM, 2 h after washout): no longer inhibited; reduction of pLRP6 during mitosis (pLRP6 S1490): 22 – 35%
0.001 ± 0.0007	0.113 ± 0.0621	CN(C)C/C=C/C(=O)Nc1cccc(S(=O)(=O)N2CCC(NC(=O)c3n[nH]cc3NC(=O)c3c(Cl)cccc3Cl)CC2)c1 [FMF-03-198-2, (E)-4-(2,6-dichlorobenzamido)-N-(1-((3-(4-(dimethylamino)but-2-enamido)phenyl)sulfonyl)piperidin-4-yl)-1H-pyrazole-3-carboxamide]	pan-CDK kinase inhibitor	–	–	–	–	–	–	–	–	–	–
0.0049 ± 0.0005	0.493 ± 0.081	CN(C)CCCC(=O)Nc1cccc(S(=O)(=O)N2CCC(NC(=O)c3n[nH]cc3NC(=O)c3c(Cl)cc(Cl)cc3Cl)CC2)c1 [FMF-04-159-R, N-(1-((3-(4-(dimethylamino)butanamido)phenyl)sulfonyl)piperidin-4-yl)-4-(2,4,6-trichlorobenzamido)-1H-pyrazole-3-carboxamide]	–	did not observe major reductions	0.563 ± 0.145	> 1	0.367 ± 0.135	5.87 ± 1.19	above 750 nM	above 500 nM	comparable to AT7519	increases in cells in G1 and G2/M and a reduction in S-phase cells	IC50 (CDK14/CycY): 0.139 ± 0.0104 µM; further fold reduction of CDK14 inhibition after washout (NanoBRET) (CDK14 [2]; 2 h washout vs no washout): 7 fold; fold less potent inhibition of CDK14 than FMF-04-159-2 (NanoBRET) (CDK14 [2]; without washout): 5 fold; IC50 (CDK16/CycY): 0.0059 ± 0.002 µM; concentration up to which compound failed to block CDK14 pull-down (CDK14 [5]; HCT116 cells): > 1 µM

Source: article PMC6588450 (Cell chemical biology, 2019)
